Laboratory results from the supplement of paper PMC10126150.
Values marked as one replicate rest on one cluster of the flow cell; about a third of the high ones do not repeat.

System: ATP
Assay: switch fluorescence ratio, 500 uM ATP over buffer (Cy3 cluster intensity, sum of 5 cycles each) (fold (ratio)); higher = stronger signal-on switching upon ATP binding; sequences stand for … in TCGTCGGCAGCGTCAGATGTGTATAAGAGACAGTTTTTTTTTTTTTTTTTTTTTTTTT…TC
Details: aptamer strand: ATP DNA aptamer (quencher-CACCTGGGGGAGTATTGCGGAGGAAGG + anchor), 100 nM annealed; ATP concentration: 500 uM; one replicate
Summary of the method: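 Imaging in selection buffer was followed by imaging after 15 min with 500 uM ATP at 22 °C, for Cy3-labelled switching-strand clusters annealed to 100 nM quencher-labelled ATP aptamer on a modified Illumina MiSeq flow-cell. Five of these buffer/ATP cycles ran, separated by NaOH stripping and re-annealing. The fluorescence ratio per cluster is summed target-cycle over summed buffer-cycle Cy3 intensity, averaged per switch-domain sequence; clusters outside 100-1000 RFU were removed.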
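Also: ATP exposure 15 min at 22 °C before imaging.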

| Sequence | switch fluorescence ratio |
| --- | --- |
| CCTGGCACGA | 1.22 |
| AAGATCTCAC | 1.03 |
| GTATCAGTCG | 0.957 |
| TTTACCAAGG | 0.994 |
| TCGGTTGCGG | 0.965 |
| CTTTCGGATT | 0.98 |
| TTAAACTAGG | 1.02 |
| CACCTTAA | 1.12 |
| CTAAAATACT | 1.22 |
| CCTGGTTACT | 1.04 |
| CTAATTTGGC | 0.927 |
| TCATAGCAAG | 1.6 |
| CGTGCAAGTC | 1.15 |
| GTGGTCTACA | 0.988 |
| GCCATAGACT | 0.979 |
| ACAGTCCGAA | 1.04 |
| GGAACAGGTC | 1.03 |
| AGAAACTCTC | 1.05 |
| CTGCCATGTG | 1.19 |
| CGTCAGTATC | 1.16 |
| CGGATTGCGG | 0.968 |
| AAAATGGAA | 0.954 |
| GTAATGAGTG | 0.966 |
| GACCGAGTGG | 0.983 |
| TATGTGATTC | 0.989 |
| AGGACTCCCA | 1.23 |

| Sequence | switch fluorescence ratio |
| --- | --- |
| ACCTGCGCTT | 2.59 |
| GGGAAACTAT | 0.992 |
| AGATTCGGGG | 1.04 |
| GGCTATGTA | 0.976 |
| ATACCCACTA | 1.39 |
| GAAAGTTTTA | 1.03 |
| TAACTAATTC | 0.975 |
| TCTTAACTCG | 0.985 |
| TGCCGGAGTC | 1.01 |
| CCAATGAG | 1.05 |
| AAACCTTAGT | 1.02 |
| TCGATTTGCA | 0.973 |
| CCACCTCAGT | 1.23 |
| AATAAGTTGG | 1.01 |
| CCTGAAGGGG | 1.03 |
| CGCTGTGCAG | 1.02 |
| GGAATTTGAC | 1 |
| GAGCATCCAT | 1.05 |
| GGCACACGTT | 1.02 |
| TTCTTGCATG | 1.11 |
| GCGAATAGGA | 1.03 |
| CTCGTTTGTT | 0.991 |
| AGGGATATGT | 1 |
| TTTACCGATG | 1.01 |
| ACACCCGACC | 1.38 |
| TGAATTAAAT | 0.974 |

| Sequence | switch fluorescence ratio |
| --- | --- |
| TTATAGCTCG | 1 |
| GAAGCCCATA | 1.02 |
| GACTAGGTAG | 1.03 |
| TGACGCCACC | 3.47 |
| CAATAGGTTT | 1.02 |
| TGCGCATAA | 1.14 |
| GACTATGGCA | 0.956 |
| ATCCAAAGGG | 1.05 |
| AATTACGCAG | 0.97 |
| ATACATTGCA | 0.996 |
| AATGTGGGT | 1 |
| CTTTCCACAT | 1.03 |
| GCATTAGACT | 0.953 |
| CGGCCTCAAG | 1.02 |
| GATGGAGAT | 0.983 |
| GACCAGGTAC | 1.31 |
| AATCGTAGCT | 1.03 |
| CGTTGTTAAA | 0.998 |
| AGGCATGGCT | 0.94 |
| TAATAATGAT | 1.01 |
| ACACTCTGCC | 1.19 |
| CCAAATTACA | 1.03 |
| GCAAATTACT | 1.59 |
| GCCTATGTGC | 0.977 |
| CTCTGGGATT | 0.971 |
| CAGGGTTCGC | 0.999 |

| Sequence | switch fluorescence ratio |
| --- | --- |
| ACATGTTCT | 1.02 |
| GCGGCCTCAT | 1.03 |
| GACACAGT | 1 |
| TCAGTTTGT | 0.947 |
| CAGAAAGCGA | 1.18 |
| TTATCTTGCG | 0.968 |
| ACTCTGAGAG | 1.02 |
| TGACAACCG | 0.995 |
| TTACCTAATT | 1 |
| ATGAGCCAT | 1.04 |
| GACGACAAAA | 1.13 |
| AGGGCATTTA | 1 |
| GGTAAATAAA | 1.01 |
| AAGATAACTC | 1.03 |
| ACGGCGTCCG | 0.98 |
| AGTATACTTG | 1.05 |
| ACAAACTAAG | 1.1 |
| TATCCCCGAA | 1.05 |
| GTTTGGTTGT | 0.98 |
| TGATCGATGC | 1.06 |
| GGGTTACCAT | 1.05 |
| TGCGGCGCTG | 0.971 |
| TGAGCTACAT | 1.07 |
| TCATGTGGCA | 1.04 |
| ACTAGGACCG | 0.939 |
| CTTATATAAT | 1.01 |

| Sequence | switch fluorescence ratio |
| --- | --- |
| AGAATGCAAT | 0.971 |
| AGCTGGGTT | 0.992 |
| TTTGTTACA | 0.957 |
| TGCCTATTAA | 0.992 |
| CGTGTAAGTC | 0.998 |
| TCTAAAGGTA | 0.918 |
| TGATTGCATC | 0.989 |
| GGTGCATTCG | 1.03 |
| AGCGGCCATC | 0.986 |
| TTACGACTCA | 1.11 |
| GGAGTATGT | 1 |
| TTCCATTATA | 1.01 |
| TATGGCTGGA | 1.11 |
| TTTTCCCAG | 1.12 |
| ATAATATTAA | 0.986 |
| GACAGTGGGG | 0.985 |
| TCAGGGATAG | 1.05 |
| CGGAGGAATC | 2.98 |
| CGTTCCATT | 1.08 |
| ATCTGGATAC | 1.47 |
| AGTGCACATG | 0.978 |
| ACCCATACGT | 1.24 |
| GTTTACACGT | 1.06 |
| TTGGTCAACG | 1.02 |
| GTCGCCGGGA | 1.05 |
| CGTGGGTTAT | 1.04 |

| Sequence | switch fluorescence ratio |
| --- | --- |
| CAGAGCACCC | 1.06 |
| AATATCTGGG | 0.996 |
| TTTGATGTG | 1.01 |
| GTTACCGGCG | 0.995 |
| AACCGTCGGC | 1.03 |
| AGCCGTTTGG | 0.999 |
| ATCGAAGATC | 0.984 |
| AGAGATACGT | 1.04 |
| GGAATTTGAA | 0.943 |
| GCTGAAATTC | 1 |
| ACTATCACCC | 1.19 |
| GGACCAACCT | 1.33 |
| CTTCAAGGGT | 0.976 |
| GTGGTTAGGA | 1.03 |
| TTAGTGAATA | 0.978 |
| AGACGTGATC | 1.04 |
| ACTTCTCTGG | 1.03 |
| AAGACACCGT | 1.01 |
| AAGACGGTG | 1.07 |
| CTTAGCGATG | 1.03 |
| TTGATGTAA | 0.973 |
| TCAATTGTGA | 0.956 |
| AAGAGCGTTG | 1.03 |
| AGTTGTTATC | 0.96 |
| GGGGGCAAGT | 0.933 |
| GGCAACCAAC | 1.14 |

| Sequence | switch fluorescence ratio |
| --- | --- |
| CTTGGACGCT | 1.03 |
| TTTTAGGGAC | 0.976 |
| TGGCTGGGCA | 0.975 |
| TTTAGATCCT | 1.06 |
| CCTTTCATCA | 1.01 |
| TAGCGTGCTC | 1.02 |
| CCGTGTGCGT | 1.04 |
| GCGCTGAAAG | 1.02 |
| TCCCTGGGTC | 1.05 |
| AATCCGGGGT | 1.04 |
| TTGTTTGAT | 0.946 |
| GATACTCTGA | 0.99 |
| TTTGAATACT | 1.02 |
| GAACTTGGGT | 1.05 |
| GGTGTTCCTG | 1 |
| TGAAGAACGT | 1.08 |
| TATGGGTAGG | 1.02 |
| TTTTCAGAGG | 1.01 |
| GTATGCCATT | 0.991 |
| AGGGTCATTG | 0.986 |
| CTTGATGCCC | 0.96 |
| TATCACAGGT | 1.14 |
| ACCTAGCATA | 1.33 |
| AAGCGGATCG | 1.03 |
| GGTACTGCGA | 1.09 |
| CATCGGCT | 1.2 |

| Sequence | switch fluorescence ratio |
| --- | --- |
| CCTCTTGTTT | 1.31 |
| GTTATGGATG | 0.967 |
| TCGCACGTTG | 1.06 |
| TGCCGAAGGG | 0.974 |
| TCGGCGTCCC | 1.08 |
| TCGACCTGAA | 1.35 |
| GGACTGTGAG | 1.02 |
| TCCGCCAGTT | 3.71 |
| TACCGAACCA | 1.15 |
| GGGCTATTCT | 0.985 |
| GATTCATT | 0.981 |
| ATTGGCCCTG | 0.992 |
| TGGGCCCCCT | 1.01 |
| CCAATCTAGA | 0.996 |
| TATCGTGGTC | 0.989 |
| CATTGCATGC | 1.23 |
| GCATGTATTA | 1.02 |
| GACACGCGCT | 0.983 |
| ATTCGGGGCC | 1.05 |
